PubChem BioAssay (NCI)
Several values for one entry are separate records, joined by “and”; a condition that tells them apart may be missing. Equal entries are not always repeated.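 All cell lines were grown in 96-well plates and treated with compound for 48 hours. Abbreviation: GI50, concentration required for 50% inhibition of growth. TGI marks complete inhibition of growth.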

What follows are compounds tested on NCI-H322M lung (assay: NCI tumour cell line growth inhibition, 48 h).
In the case of `COc1ccc(C[C@H]2C[C@@H](O)[C@@H](C)C/C=C/Cc3cccc(O)c3C(=O)O2)cn1`, the GI50 is reported as 27.3 µM and the TGI is reported as 93.3 µM. Work on `Cc1nnc([S-])s1.[Au+].c1ccc([PH+](c2ccccc2)c2ccccc2)cc1` yielded a GI50 of 1.68 µM and a TGI of 3.05 µM. In the case of `Brc1ccc(N2C[N+](c3ccc(Br)cc3)=NC(c3ccccc3)=N2)cc1`, the TGI is reported as 35 µM and > 100 µM. `CC1(CC(=O)O)OC2CCCCCC2O1` (stereo not given) (tested in a mixture with another compound) showed a TGI of over 100 µM. Compound `CCC1OCCN1C(C)C` (stereo not given) has a TGI of over 100 µM. `COc1ccc(C2=CC(c3cc(OC)c(OC)c(OC)c3)n3ncnc3N2)cc1` (stereo not given) was tested, and the GI50 was 0.0953 µM and the TGI was over 100 µM. In the case of `O=C1c2cccnc2C(=O)c2c1c(C(=O)OCCCN1CCOCC1)c1ccccn21`, the GI50 is reported as under 0.0111 µM and the TGI is reported as 1.62 µM. Compound `Cc1cccc(NC(=O)CC(=O)N2N=C(N3c4ccccc4Sc4ccccc43)CC2c2ccccc2)c1` (stereo not given) has a TGI of over 100 µM. In the case of `CCOC(=O)c1cnc2[nH]c(=O)c3ccccc3n2c1=O`, the TGI is reported as over 100 µM. Compound `c1ccc2c3c(ccc2c1)CSCc1ccc2ccccc2c1-3` has a TGI of over 100 µM. For `COC(=O)/C(=N\NC(=O)c1ccccc1O)C(C#N)c1ccc(Cl)cc1` (stereo not given), the TGI was over 100 µM. `COc1cc(C2SCC(=O)N2NC(=O)c2ccc(NC(C)=O)cc2)cc(OC)c1OC` (stereo not given) was tested, and the TGI was over 100 µM. Compound `Cc1cnc(Cl)nc1C(C#N)c1nc2ccccc2n1C` (stereo not given) has a TGI of over 100 µM. In the case of `CC[C@@]1(OC(=O)CN)C(=O)OCc2c1cc1n(c2=O)Cc2cc3cc(N)ccc3nc2-1`, the GI50 is reported as 0.0434 µM and the TGI is reported as over 100 µM. `O=C1c2cc([N+](=O)[O-])ccc2NC2C(O)c3ccccc3N12` (stereo not given) gave a TGI of over 100 µM. `Brc1ccc2c(c1)C1(c3cc(Br)ccc3-2)c2cc(Br)ccc2-c2ccc(Br)cc21` was tested, and the TGI was over 100 µM. `O=C1C=CC(=O)c2c(O)c(N3CCSCC3)c(Cl)c(O)c21` showed a TGI of 1.85 µM. `CC(C)=CCN(N=O)c1ncnc2nc[nH]c12` showed a TGI of over 100 µM. Work on `CC1=CC2=C(C)C3(CC3)[C@@](C)(O)C(=O)C2=C1` yielded a TGI of over 1 µM. `CCOC(=O)c1c2c(n(C)c1-c1ccccc1)C(=O)C(C)=CC2=O` showed a TGI of 30.1 µM. Work on `O=c1c(Cc2ccc(Cl)cc2)nnc2sc(-c3ccc([N+](=O)[O-])cc3)nn12` yielded a TGI of over 100 µM. In the case of `Oc1c2cccc1Cc1cccc3c1OCCOCCOCCOCCOc1c(cccc1Cc1cccc(c1O)C3)C2`, the TGI is reported as over 100 µM. For `Cc1ccc(S(=O)(=O)Nn2c(-c3ccccc3)c(C#N)c(-c3ccc([N+](=O)[O-])cc3)c(C#N)c2=O)cc1`, the TGI was over 100 µM. With `COc1cc(C2C(Cl)C(=O)N2c2ccc(Br)cc2)cc(I)c1O` (stereo not given) the TGI was over 100 µM. `CC(C)(C)OC(=O)NC(Cc1ccccc1)C(=O)N[C@H]1c2ccsc2/C(=N/O)[C@H]1O` (stereo not given in full) gave a TGI of over 100 µM. In the case of `CSc1c(C(C)=O)c(O)n(-c2ccc(Cl)cc2)c(=O)c1C#N`, the TGI is reported as over 100 µM. Work on `NC(N)=N/N=C(\c1ccc(Cl)cc1)C1CC1` yielded a TGI of 67.7 µM. For `COC(=O)C12CC(C3CC31)C1CC12` (stereo not given), the TGI was over 100 µM. For `COc1ccccc1C(=O)c1c(N2CCCCC2)c(=O)c1=O`, the TGI was over 100 µM. For `CC(C)OP(=O)(OC(C)C)C(N(C)C)P(=O)(OC(C)C)OC(C)C.[Cl][Sn]([Cl])([Cl])[c]1ccccc1`, the GI50 was 3.89 µM and the TGI was 44.9 µM. In the case of `N#Cc1c(=O)c2cccnc2n2c1[nH]c1ccccc12`, the TGI is reported as over 100 µM. Compound `CCCCCCCCCCCCCCCCOCC(CC(F)(F)P(=O)(O)O)OC(C)=O` (stereo not given) has a TGI of over 50 µM. `O=C1[C@H]2C(c3ccccc3)=NN(C(=O)c3ccccc3)[C@H]2C(=O)N1c1ccccc1` gave a TGI of over 100 µM. Work on `COc1ccc(S(=O)(=O)N/N=C/C(=O)O)cc1` yielded a TGI of over 1250 µM. In the case of `Cc1ccc(NCSc2ccc(Cl)cc2)cc1`, the GI50 is reported as 75.3 µM and the TGI is reported as over 100 µM. For `Cc1ccc(S(=O)(=O)C(C#N)c2nc3ccccc3nc2-n2cccn2)cc1` (stereo not given), the TGI was over 100 µM. `CCOP(=O)(OCC)/C(C#N)=C\c1cccc2ccccc12` showed a TGI of over 100 µM. `CC(CS(=O)(=O)Cc1ccccc1)C(N)=O` (stereo not given) was tested, and the TGI was over 100 µM. With `CC1(C)OC[C@@H](/C=C\CCO[Si](c2ccccc2)(c2ccccc2)C(C)(C)C)N1C(=O)c1ccccc1` the TGI was over 100 µM. In the case of `OC(CC(c1ccccc1)c1ccc(Cl)cc1)c1ccc(Cl)cc1` (stereo not given), the TGI is reported as over 100 µM. In the case of `Cc1c(C(C)C)cc(OCCO)cc1C(C)C`, the TGI is reported as over 100 µM. Compound `O=C(Cn1c2ccc(Br)cc2c2nc3ccccc3nc21)NC1CCCCC1` has a TGI of over 100 µM. Compound `Cc1[nH]c(=O)nc(N/N=C/c2ccc(Cl)c(Cl)c2)c1C(=O)Nc1ccc(Cl)c(Cl)c1` has a TGI of over 52.5 µM. Compound `NC1=NS(=O)(=O)N=C(N)C1=Cc1ccc([N+](=O)[O-])o1` has a TGI of over 100 µM. For `O=C(Cc1nc2ccc(C(=O)c3ccccc3)cc2[nH]c1=O)C(=O)Nc1ccccc1[N+](=O)[O-]`, the TGI was over 100 µM. For `COc1ccc(CNc2nc(NCc3ccc(OC)cc3)nc(NC3CCCCC3)n2)cc1`, the TGI was 4.89 µM. Compound `C=C1C(=O)O[C@H]2C1[C@H](OC(=O)/C(C)=C\COC(C)=O)C[C@]1(CO1)[C@@H]1[C@H](O)[C@H]3O[C@@]3(C)[C@@H]12` (stereo not given in full) has a TGI of over 100 µM. In the case of `Oc1ccc2ccccc2c1-c1nnc(CCCCCCCCc2nnc(-c3c(O)ccc4ccccc34)o2)o1`, the GI50 is reported as 1.17 µM and the TGI is reported as 14.2 µM and > 81.4 µM. With `Cn1c(=O)n(-c2ccc(C(C)(C)C#N)cc2)c2c3cc(-c4cnc5ccccc5c4)ccc3ncc21` the GI50 was 0.0128 µM and 0.00628 µM and < 0.01 µM. `CN(C)CCCn1c2ccccc2c2cnccc21` showed a TGI of over 100 µM. With `CCOC(=O)c1[nH]c2c(c1C)-c1[nH]c(=O)c(S(=O)(=O)c3ccccc3)cc1SC2` the GI50 was 32.2 µM and the TGI was over 100 µM.
